We go through one substance from PMC11831438.

These are yes or no findings as the source states them, for the method shown. Binding seen in cells or lysates may run through a third protein. Some entries that bind do so weakly or less than the wild type.

The assay concerns the target T1, endogenous Nrf2 (mouse) (mouse (endogenous in primary neurons and brain)) (UniProt Q60795).
T1 sequence: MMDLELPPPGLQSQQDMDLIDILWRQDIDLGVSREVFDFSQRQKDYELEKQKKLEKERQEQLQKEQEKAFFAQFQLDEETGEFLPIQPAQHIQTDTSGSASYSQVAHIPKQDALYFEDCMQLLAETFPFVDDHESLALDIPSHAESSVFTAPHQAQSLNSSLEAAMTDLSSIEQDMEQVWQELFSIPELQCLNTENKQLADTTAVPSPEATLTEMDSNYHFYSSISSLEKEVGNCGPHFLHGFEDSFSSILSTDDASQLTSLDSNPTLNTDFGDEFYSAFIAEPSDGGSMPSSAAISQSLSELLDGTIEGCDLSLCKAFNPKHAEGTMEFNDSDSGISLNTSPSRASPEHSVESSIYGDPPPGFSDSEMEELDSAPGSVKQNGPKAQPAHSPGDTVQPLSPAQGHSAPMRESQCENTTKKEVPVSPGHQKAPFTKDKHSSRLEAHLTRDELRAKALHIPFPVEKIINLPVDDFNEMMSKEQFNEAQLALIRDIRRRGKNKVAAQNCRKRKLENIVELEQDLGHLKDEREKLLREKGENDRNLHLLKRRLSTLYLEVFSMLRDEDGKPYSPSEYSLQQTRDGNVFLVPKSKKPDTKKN
The assay is described as follows: co-IP; endogenous proteins in primary mouse neurons, control or OGD 1 h and reperfusion 24 h; whole lysates and cytoplasmic and nuclear fractions; in some experiments neurons infected with adenoviruses expressing SENP6 or SENP6 shRNA for 48 h.

On to “endogenous Cul3 (mouse) (from UniProt Q9JLV5 1-768)”, for which the binding result is reported as “binds”.
